# Source: paper PMC4336329 (PLoS ONE, 2015)
# In all, about 310,000 compounds went through this assay and about 2,200 (0.71%) showed an effect of 50% or more. The effect is printed as a negative number. This is one part of the list.
# Molecular target: human ether-à-go-go-related gene (hERG) potassium channel (human, UniProt Q12809)
# Assay: primary screen, population patch clamp on CHO cells stably expressing hERG
# Chain of human ether-à-go-go-related gene (hERG) potassium channel (Q12809 whole entry, looked up): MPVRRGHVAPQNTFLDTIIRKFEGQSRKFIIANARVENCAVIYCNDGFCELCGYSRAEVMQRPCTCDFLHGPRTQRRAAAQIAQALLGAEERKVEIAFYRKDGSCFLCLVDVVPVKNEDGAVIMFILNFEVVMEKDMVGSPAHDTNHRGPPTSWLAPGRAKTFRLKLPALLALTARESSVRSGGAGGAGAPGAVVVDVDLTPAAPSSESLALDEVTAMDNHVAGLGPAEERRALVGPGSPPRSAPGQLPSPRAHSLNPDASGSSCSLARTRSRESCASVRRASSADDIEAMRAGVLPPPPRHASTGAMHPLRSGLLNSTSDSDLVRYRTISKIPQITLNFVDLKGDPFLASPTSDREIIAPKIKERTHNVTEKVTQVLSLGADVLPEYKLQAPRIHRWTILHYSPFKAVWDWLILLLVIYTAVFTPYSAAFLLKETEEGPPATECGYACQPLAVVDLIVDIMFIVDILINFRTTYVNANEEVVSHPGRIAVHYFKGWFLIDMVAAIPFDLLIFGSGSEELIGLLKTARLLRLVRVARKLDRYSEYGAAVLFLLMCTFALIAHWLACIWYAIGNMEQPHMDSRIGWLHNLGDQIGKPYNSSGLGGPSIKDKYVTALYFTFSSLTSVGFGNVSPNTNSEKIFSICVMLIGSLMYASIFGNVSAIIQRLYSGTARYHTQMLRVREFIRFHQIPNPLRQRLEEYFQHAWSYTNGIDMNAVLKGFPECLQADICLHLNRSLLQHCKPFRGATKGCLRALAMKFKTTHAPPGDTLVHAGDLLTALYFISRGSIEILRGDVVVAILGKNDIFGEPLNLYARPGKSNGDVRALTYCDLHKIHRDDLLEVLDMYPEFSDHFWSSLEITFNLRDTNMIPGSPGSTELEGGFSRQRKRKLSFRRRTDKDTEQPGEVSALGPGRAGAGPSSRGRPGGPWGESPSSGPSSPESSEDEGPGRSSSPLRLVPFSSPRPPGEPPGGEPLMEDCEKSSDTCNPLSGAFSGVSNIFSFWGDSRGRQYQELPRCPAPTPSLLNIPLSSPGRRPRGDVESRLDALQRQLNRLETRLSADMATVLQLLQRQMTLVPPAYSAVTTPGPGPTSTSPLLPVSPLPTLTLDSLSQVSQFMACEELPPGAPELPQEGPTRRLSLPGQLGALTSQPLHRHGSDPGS
row,SMILES,"hERG current change (%, negative = inhibition) at 1uM [%]"
1,CCn1c(=O)c2sccc2n(CC(=O)NC2CCCC2)c1=O,9.2
2,COC(=O)c1ccc(C)c(NC(=O)CN(c2ccccc2)S(=O)(=O)N(C)C)c1,16.4
3,CCCN(CCC)C(=O)CC(c1ccccc1)c1cc(Br)ccc1O (stereo not shown),11.3
4,NS(=O)(=O)c1ccc(CCNC(=O)COC(=O)/C=C/c2ccc(Cl)cc2)cc1,1.84
5,CCN(CC)S(=O)(=O)c1ccc(C)c(NC(=O)CN2C(=O)NC3(CCCC3)C2=O)c1,13.7
6,COc1ccc(CNS(=O)(=O)c2cc3c4c(c2)C(C)C(=O)N4CCC3)cc1 (stereo not shown),6.59
7,CC(=O)NNc1ccc(C(F)(F)F)cc1[N+](=O)[O-],15.6
8,CCCc1ccc(OCC(=O)NNC(=S)NC(=O)c2ccco2)cc1,3.15
9,COc1ccccc1-c1nc(S(=O)(=O)c2ccc(Cl)cc2)c(N(C)C)o1,14.9
10,COC(=O)c1ccc(C2C(Oc3ccccc3C)C(=O)N2CCc2ccc(OC)c(OC)c2)cc1 (stereo not shown),8.46
11,O=C(NCCN1CCOCC1)c1cccc(S(=O)(=O)Nc2ccc(Br)cc2)c1,4.89
12,Cc1sc2ncnc(N(C)Cc3ccco3)c2c1C,8.66
13,O=C(COc1ccccc1[N+](=O)[O-])N/N=C/c1ccccn1,7.25
14,O=C(/C=C/c1ccc2c(c1)OCO2)Nc1nc(-c2ccccc2)cs1,8.24
15,Cc1cccc(C(=O)NC2CCN(CC(=O)Nc3ccc4c(c3)OCO4)CC2)c1,-28.7
16,Cn1cc(/C=C(\NC(=O)c2ccccc2Cl)C(=O)NCCN2CCOCC2)c2ccccc21,15.6
17,Cc1cnc[nH]1,0.776
18,COc1ccc(O)c(CN2CCN(CCCc3ccccc3)C(CCO)C2)c1 (stereo not shown),-21.7
19,CCCC(=O)O/N=C(\c1ccccc1)c1ccncc1,13.4
20,Cc1ccccc1CCNC(=O)Cn1ccc2cc(S(=O)(=O)N3CCCC3)ccc21,13.2
21,CC(=O)N1CCN(CCN(CC2C(C)C=C(C)CC2C)C(C)=O)CC1 (stereo not shown),1.37
22,CC(=O)NC1=NN(C(C)=O)C(C)(c2ccccn2)S1 (stereo not shown),16.1
23,CC(C)(C)c1cc(C(=O)N/N=C/c2ccc(-c3ccccc3[N+](=O)[O-])o2)n[nH]1,8.04
24,O=C(COC(=O)c1cccc(O)c1)Nc1nnc(-c2ccccc2)o1,18.1
25,C[C@H](CCC(=O)NCC(=O)O)[C@H]1CC[C@H]2[C@@H]3[C@H](O)C[C@@H]4C[C@H](O)CC[C@]4(C)[C@H]3C[C@H](O)[C@]12C.O,11.8
26,O=C(CCC1CCCC1)Nc1ccccc1-c1ccccc1,8.84
27,CC1CCC(C(=O)NC(C(=O)N2CCC3(CC2)OCCO3)C(C)C)CC1 (stereo not shown),0.523
28,COc1cccc(N(CC(=O)N2CCOCC2)S(C)(=O)=O)c1,20.9

row,SMILES,"hERG current change (%, negative = inhibition) at 1uM [%]"
1,Cc1ccc(C)c(N(CC(=O)NC2CCCC2)C(=O)c2cc3cc4cc(C)ccc4nc3s2)c1,7.39
2,Nc1c(C(=O)CSc2ccccn2)c(=O)[nH]c(=O)n1C1CC1,9.19
3,COc1ccc(/C=C/C(=O)O)cc1S(=O)(=O)N1CCc2ccccc21,6.26
4,Cc1cc(/C=N/NC(=O)c2ccncc2)c(C)n1-c1ccccc1,19.9
5,C/C(=N\NC(=O)C(O)c1ccccc1)c1ccc(Cl)cc1 (stereo not shown),20.7
6,Cc1nc2ccccc2c2c1CC(C)S2 (stereo not shown),11
7,O=C(Oc1coc(CSc2ncccn2)cc1=O)c1cccs1,9.21
8,CCOC(=O)c1cnc2cc(C)nn2c1-c1ccccc1,13
9,COc1ccc(N2CC(C(=O)N3CCC(c4nc5ccccc5[nH]4)CC3)CC2=O)cc1 (stereo not shown),4.23
10,CCN1CCN(c2cc(-c3ccccc3)nc3cc(-c4cccc(F)c4)nn23)CC1,0.799
11,NC(=O)c1ccc(SCC(=O)OCC(=O)N2CCCCC2)c([N+](=O)[O-])c1,10.2
12,O=C1CC(C(=O)N(CC2CCCO2)C(C(=O)NC2CCCCC2)c2ccncc2)CS1 (stereo not shown),1.09
13,COC(=O)c1c(C)oc2ccc(N(C(=O)Oc3ccccc3)S(=O)(=O)c3ccc(Cl)c([N+](=O)[O-])c3)cc12,6.89
14,O=C(NC1CCCC1)c1ccc(CS(=O)(=O)c2ccc(Br)cc2)o1,-17
15,CCOCCOC(=O)C(C)Oc1ccc(Oc2nc(Cl)ccc2Cl)cc1 (stereo not shown),12.7
16,Cc1ncsc1C(=O)N1N=C2/C(=C/c3ccc(N4CCOCC4)cc3)CCCC2C1c1ccc(N2CCOCC2)cc1 (stereo not shown),6.41
17,CCCC(=O)Nc1nnc(C2CCCO2)s1 (stereo not shown),2.41
18,CCOCCCn1c(C)nc2c(c1=O)c1nc3ccccc3nc1n2-c1ccc2c(c1)OCCO2,11.4
19,COCCn1c(SCC(=O)Nc2ccc(F)cc2)nc2ccccc2c1=O,-9.52
20,COc1cc(NC(=O)CSc2nnc(C)s2)cc(OC)c1,17.9
21,O=C(Nc1ccc(Cl)cc1C(=O)c1ccccc1)c1ccc(Br)o1,10.8
22,COC(=O)CCC(=O)Nc1ccc(S(=O)(=O)N2CCc3ccccc32)cc1,14.8
23,Cc1cc(C)nc(/N=C(\NC(=O)C(C)(C)C)Nc2ccc(F)cc2)n1,10.8
24,Cc1c(Cl)cccc1NC(=S)NCc1cccn1C,9.44
25,CC(Oc1ccc(Cl)cc1Cl)c1nc(-c2ccc(NC(=O)c3ccccn3)cc2)no1 (stereo not shown),14.6
26,Cn1nc(-c2ccc(C(=O)N3CCN(CCO)CC3)cc2)c2ccccc2c1=O,2.73
27,CC(CCc1ccc(O)cc1)NCc1ccc(Br)cc1 (stereo not shown),-66.8
